Results as given in PubChem BioAssay AID1845204 (Molecular Pharmacology Branch, DTP, NCI, 2023).
The source holds more than one record for some entries. The list is limited to them. There may be further records. Results that share an entry repeat one measurement in other runs, samples, wells, individuals or studies.

System: HSSY-II tumor spheroid viability
Experiment: Anticancer human tumor HSSY-II cell line growth inhibition;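 further: spheroids exposed to compounds for seven days before reading; percent of DMSO vehicle control viability so 100% = untreated level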
Conditions: stronger effect = lower value, spheroids with HUVEC and MSC
Source text: Multicellular complex tumor spheroid response to DNA repair inhibitors in combination with DNA-damaging drugs
This study explores the anticancer activities of DNA-damaging drugs and inhibitors of DNA damage repair, both as single agents and in combinations. Complex tumor spheroids comprised of malignant cells, endothelial cells and mesenchymal stem cells served as an in vitro model for human solid tumors. This model system incorporates physiologically relevant features and patient-derived or established malignant cell lines with clinically relevant genetic alterations from many tumor types. Twenty-six patient-derived or established malignant cell lines were evaluated representing sarcoma, melanoma, small cell lung cancer (SCLC), non-small cell lung cancer (NSCLC), as well as bladder, ovarian and pancreatic cancers. The concentration ranges selected for each drug and investigational agent were based upon clinically achievable concentrations if the clinical Cmax of the agent was known.
Compounds. The drugs and compounds olaparib (NSC753686), talazoparib (NSC767125), berzosertib (NSC777718), elimusertib (NSC800525), nedisertib (NSC802822), VX-984 (NSC792969), AZD-1390 (NSC803789), temozolomide (NSC362856), topotecan (NSC609699), trabectedin (NSC813783), staurosporine (NSC755774), and gemcitabine (NSC613327) were obtained from the National Cancer Institute (NCI) Developmental Therapeutics Program Chemical Repository. The FDA-approved anticancer drug set is available from the Developmental Therapeutics Program at https://dtp.cancer.gov/organization/dscb/obtaining/available_plates.htm. […] The stock solutions were prepared in dimethyl sulfoxide (DMSO, Sigma-Aldrich, St. Louis, MO, cat. D2650) at 400-fold the tested concentration and stored at -70 degrees C. Prior to their use, the stock solutions were diluted in fresh medium and the final DMSO concentration in the assay was 0.25% (v/v). All drugs and investigational agents were tested over a range starting from a high concentration at or near the clinical Cmax and decreasing in half-log increments. If the clinical Cmax for an agent had not been determined, the highest concentration tested was 10 microM.
Cell Lines. The patient-derived cancer cell (PDC) lines: 156681-154-R-J1-PDC, 283228-195-R-J1-PDC, 287954-098-R-J1-PDC, 292921-168-R-J2-PDC, 349418-098-R-PDC, 425362-245-T-J1-PDC, 556581-035-R-J1-PDC, and BL0293-F563-PDC were received from the NCI Patient-Derived Models Repository (PDMR, https://pdmr.cancer.gov). The established cell lines HS-SY-2 (RRID:CVCL_8719), MPNST, and SYO-1 (RRID:CVCL_7146) were obtained from the Sloan Kettering Institute. The alveolar soft parts sarcoma cell line ASPS-1 (RRID:CVCL_S738) was established at the NCI and grown from internal seed stocks. […]

CC[C@@]1(O)C(=O)OCc2c1cc1n(c2=O)Cc2cc3c(CN(C)C)c(O)ccc3nc2-1
viability, T/C (compound alone 0.00949 µM): 44.7, 49.4, 64.4, 40.8, 41.3, 67.7, 54.8, 56.2, 61.5, 58.5%

O=C(c1cc(Cc2n[nH]c(=O)c3ccccc23)ccc1F)N1CCN(C(=O)C2CC2)CC1
viability, T/C (compound alone 30 µM): 44.5%, 7.95%, 12.2%

COc1cc2c(cc1O)CCNC21CSC2c3c(OC(C)=O)c(C)c4c(c3C(COC1=O)N1C(O)C3Cc5cc(C)c(OC)c(O)c5C(C21)N3C)OCO4 (centres undefined)
viability, T/C (compound 30 pM): 96.5, 98.3, 99.9, 95.7, 98.6, 97.2, 120, 193, 113, 138%
viability, T/C (compound 94.9 pM): 88.2, 88, 95.8, 82.2, 90.9, 90.4, 120, 117, 106, 119%
